Measurements reported in a compilation of properties of binary mixtures (doi:10.1016/j.fluid.2020.112621).
Some of these densities may be calculated back from excess volumes.

Experiment: xn = mol fraction of the nth substance listed
Conditions: 101 kPa

CC(=O)O.CC(=O)[O-].CC[NH+](CC)CCO + CCCC[n+]1ccn(C)c1.COP(=O)([O-])OC
mass density [kg/m3]
Conditions | x1 = 0.0748 | x1 = 0.3316 | x1 = 0.4263 | x1 = 0.5275 | x1 = 0.6343 | x1 = 0.7493 | x1 = 0.8567 | x1 = 1
278.15 K | 1162.5 | – | 1118.5 | – | 1102.2 | 1092.9 | 1081.1 | 1068.4
283.15 K | 1158.8 | 1123.1 | 1114.5 | 1106.7 | 1098.2 | – | 1077 | 1064.3
288.15 K | 1155.2 | 1119.2 | 1110.5 | – | 1094.2 | 1085.2 | 1073 | 1060.4
293.15 K | – | 1115.3 | 1106.5 | 1098.6 | 1090.2 | – | 1069.1 | 1056.7
298.15 K | 1148.3 | 1111.4 | 1102.5 | – | – | 1077.5 | – | 1052.6
303.15 K | – | 1107.6 | 1098.6 | 1090.7 | 1082.4 | 1073.6 | 1061 | –
308.15 K | 1141.5 | – | 1094.7 | 1086.7 | 1078.5 | – | 1056.9 | 1044.6
313.15 K | 1138.3 | 1100.1 | 1090.7 | – | – | 1065.8 | 1052.9 | 1040.6
318.15 K | 1134.9 | 1096.4 | 1086.8 | 1078.8 | 1070.6 | 1061.8 | – | 1036.6
323.15 K | 1131.3 | 1092.6 | 1083 | – | – | 1057.8 | – | 1032.6
328.15 K | – | 1088.8 | – | 1070.8 | 1062.5 | – | 1040.7 | 1028.5
333.15 K | 1124.6 | 1085.1 | 1075.3 | 1066.7 | – | – | 1036.6 | 1024.5
338.15 K | – | 1081.3 | 1071.3 | 1062.7 | 1054.4 | 1045.7 | 1032.5 | 1020.4
343.15 K | 1118.2 | 1077.6 | 1067.4 | 1058.6 | 1050.3 | – | 1028.4 | 1016.3
348.15 K | 1114.6 | 1073.8 | 1063.5 | 1054.6 | – | 1037.6 | 1024.3 | –
353.15 K | 1111.3 | 1070.1 | 1059.5 | 1050.5 | 1042.1 | 1033.4 | 1020.1 | 1007.9
358.15 K | 1108.1 | 1066.3 | 1055.6 | – | 1038 | 1029.3 | – | –
363.15 K | 1104.8 | 1062.6 | 1051.7 | 1042.4 | 1033.8 | 1025.1 | 1011.6 | –
368.15 K | 1101.5 | 1058.9 | 1047.8 | – | – | 1020.9 | 1007.4 | 995.1
373.15 K | 1098.2 | 1055.2 | 1043.9 | 1034.3 | 1025.5 | 1016.7 | 1003 | 990.7

CCCCC(=O)[O-].CC[NH+](CC)CCO + CCCC[n+]1ccn(C)c1.COP(=O)([O-])OC
mass density [kg/m3]
Conditions | x1 = 0.1018 | x1 = 0.1952 | x1 = 0.3029 | x1 = 0.4003 | x1 = 0.4973 | x1 = 0.5989 | x1 = 0.6984 | x1 = 0.7978 | x1 = 0.8868 | x1 = 1
278.15 K | 1150.1 | 1127.5 | 1104 | 1082 | 1064.3 | 1046.8 | – | 1014.2 | 999.9 | 981.4
283.15 K | 1146.3 | 1123.7 | 1100.1 | 1077.8 | – | 1042.6 | 1027.1 | 1010 | 995.6 | 977.1
288.15 K | – | 1120.2 | 1096.6 | 1073.8 | 1056.2 | 1038.6 | 1023 | 1005.9 | 991.4 | 973
293.15 K | – | 1116.7 | 1092.8 | 1069.9 | 1052.3 | 1034.6 | 1018.9 | 1001.8 | 987.3 | 968.9
298.15 K | 1136.2 | – | 1089.2 | 1066.1 | 1048.4 | – | 1014.9 | – | 983.2 | 964.7
303.15 K | 1132.7 | – | – | 1062.3 | 1044.5 | 1026.7 | 1010.9 | 993.7 | 979.1 | –
308.15 K | 1129.2 | – | 1082 | 1058.7 | 1040.7 | – | 1006.8 | 989.6 | 975 | 956.5
313.15 K | 1125.8 | 1103 | – | – | 1036.8 | – | 1002.8 | 985.6 | – | 952.3
318.15 K | 1122.6 | – | 1074.9 | – | 1033 | – | – | 981.5 | 966.8 | 948.2
323.15 K | 1119 | 1095.8 | 1071.6 | 1048.6 | 1029.2 | 1011 | 994.8 | – | 962.7 | 944.1
328.15 K | 1115.7 | 1092.7 | 1068.1 | 1045.3 | – | – | – | 973.4 | 958.6 | 939.9
333.15 K | – | 1089.3 | – | – | 1021.7 | 1003.3 | 986.8 | 969.3 | – | –
338.15 K | 1109 | – | 1061.1 | 1038.7 | – | – | 982.9 | 965.3 | 950.4 | 931.5
343.15 K | 1105.7 | 1082.5 | 1057.6 | – | – | 995.6 | – | 961.2 | 946.3 | 927.3
348.15 K | 1102.4 | 1078.9 | 1054.2 | 1031.7 | 1010.6 | – | 974.9 | 957.1 | 942.1 | 923.1
353.15 K | 1099.2 | 1075.6 | 1050.5 | 1028.2 | 1006.9 | – | 970.9 | 953 | 938 | 918.9
358.15 K | 1095.9 | 1072.2 | 1047.3 | 1024.6 | 1003.2 | 984 | 966.9 | 948.9 | – | –
363.15 K | – | 1068.9 | 1043.6 | 1021.1 | 999.6 | 980.1 | – | 944.8 | 929.6 | 910.2
368.15 K | 1089.4 | 1065.6 | 1040.5 | 1017.3 | 996.1 | 976.2 | 958.9 | 940.7 | 925.4 | 905.9
373.15 K | 1086.2 | 1062.3 | 1036.8 | – | 992.4 | 972.4 | 954.8 | 936.5 | 921.1 | –
